# The whole screen tested about 340,000 compounds, of which about 12,000 (3.5%) were called active. This list was built around the results that the source calls inconclusive (neither active nor inactive); the mix of calls is not that of the screen. Calls come from the whole dose curve; as a rule, active = well fitted inhibition curve with a large enough effect; inconclusive = small, poorly fitted or top-dose-only effect, or another doubt; inactive = no such curve, though single readings can be large or run the other way. No potency is given beside an inconclusive call; the fits are too rough.
# Test: qHTS Assay for Inhibitors of Hepatitis C Virus (HCV)
# Details: Huh7.5.1 HCVcc-Cre (HCVcc is cell-culture hepatitis C virus) infection, luciferase reporter, 44 h; activity change, negative = inhibition: at 41.8 µM (top of the series) unless noted
# In short: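 Whole-lifecycle infectious HCVcc-Cre system; cells 1,000/well, compound then virus (~0.5 moi) added 4 h after plating, 44 h culture. Luciferase read 15 sec following 15 min substrate incubation, room temp.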
# % is set by controls: 0 for no effect and ±100 for the full control effect; potency is the fitted concentration of half-maximal effect; tags give direction and shape of the fitted curve.
Compound,Potency,"activity change, negative = inhibition"
COc1cc(NC(=O)CCn2c(=S)oc3ccccc32)cc(OC)c1OC,"inconclusive [inhibitor, partial curve]",
Cc1ccccc1Nc1nc(-c2sc(NC(=O)c3ccco3)nc2C)cs1,"inconclusive [inhibitor, partial curve]",
O=c1c2cc(-c3ccccc3)sc2ncn1/N=C/c1ccco1,"inconclusive [inhibitor, partial curve]",
c1ccc2oc(-c3ccc(Nc4nc(N5CCOCC5)nc(N5CCOCC5)n4)cc3)nc2c1,"inconclusive [inhibitor, partial curve, poor fit]",
CCCc1cc(C(=O)NNC(=S)NC2CCCCC2)cs1,,inactive: -0.203%
Cc1ccc(Nc2nc(N/N=C/c3c[nH]c4ccccc34)nc(N3CCOCC3)n2)cc1,"inconclusive [inhibitor, partial curve, poor fit]",
CCOC(=O)c1c(C2CC2)csc1NC(=O)COC(=O)c1cc(OC)c(OC)cc1[N+](=O)[O-],"inconclusive [inhibitor, partial curve]",
COc1cccc(CN(C)C(=O)c2cc(S(=O)(=O)NC3CCCCC3)ccc2C)c1OC,"inconclusive [inhibitor, single point]",
CSc1ccccc1NC(=O)C1CCCO1 (stereo not drawn),"inconclusive [inhibitor, single point]",
O=C(COc1ccccc1Cl)Nc1ccc(C(=O)N2CCCCC2)cc1,"inconclusive [inhibitor, single point]",
CCOc1cccc(N2C(=O)/C(=C/c3ccco3)C(=O)NC2=S)c1,,inactive: -21.9%
NCC(c1ccco1)c1c[nH]c2ccccc12 (stereo not drawn),"inconclusive [inhibitor, single point]",
Cc1cccc(CCNCc2cc3ccc(C)cc3[nH]c2=O)c1,,inactive: -0.56%
Nc1cc(N)nc(SCC(=O)NC2CCCCCCC2)n1,,inactive: -2.02%
O=C(c1ccco1)N1CCN(C(=O)c2sccc2-c2ccccc2)CC1,,inactive: -15.6%
COC(=O)[C@]1(C)N[C@H](CN(C)C(=O)c2ccc(C(C)(C)C)cc2)[C@@H]2C(=O)N(C)C(=O)[C@@H]21,,inactive: -14.2% [at 8.37 µM]
Nc1nonc1-c1nc2ccccc2n1CC(=O)N1CCN(c2ccc(F)cc2)CC1,"inconclusive [inhibitor, full curve]",
N[C@@H](Cc1ccc(N(CCCl)CCCl)cc1)C(=O)O,"inconclusive [inhibitor, single point]",
CC(C)c1ccc(/C=N/Nc2ccc(C(=O)O)cc2)cc1,,inactive: 9.46%
COc1cccc(N/C=C(\C#N)c2ccc(OCCCF)cc2)c1,"inconclusive [inhibitor, single point]",
COC(=O)c1c(-c2ccccc2OC)sc2ccc(OC)cc12,"inconclusive [inhibitor, partial curve]",
CC[C@H](C)[C@H](NC(=O)OCc1ccccc1)C(=O)OCC(=O)N1CCN(c2ccc(F)cc2)CC1,"inconclusive [inhibitor, partial curve]",

Compound,Potency,"activity change, negative = inhibition"
COc1ccc(C(=O)NNC(=S)NC(=O)c2ccco2)cc1,"inconclusive [inhibitor, partial curve]",
COc1ccc(-n2c(SC)nc3sc4c(c3c2=O)CCN(C)C4)cc1,"inconclusive [inhibitor, partial curve]",
COc1cc(NC(=O)c2nccn2C)cc(C(=O)Nc2cccc(C(F)(F)F)c2)c1,active: 2.51 µM,
CCC(C)NC(=O)Cn1cc(S(=O)(=O)N2CCN(c3ccccc3F)CC2)c2ccccc2c1=O (stereo not drawn),"inconclusive [inhibitor, partial curve]",
O=C1C=CC(=O)N1c1ccc(N2CCCCC2)cc1,"inconclusive [inhibitor, single point]",
CC(C)Cc1ccc(CN2CCCC(NC(=O)c3ccoc3)C2)cc1 (stereo not drawn),"inconclusive [inhibitor, partial curve]",
CCN1CCN(C(=S)Nc2cc(S(=O)(=O)N(CC)CC)ccc2C)CC1,,inactive: -25.7%
Cc1nn(Cc2ccc(F)cc2)c(C)c1NC(=O)c1cnn2c1NC(c1cccs1)CC2C(F)(F)F (stereo not drawn),"inconclusive [inhibitor, partial curve]",
CCc1nnc(SCC(=O)Nc2ccc3c(c2)OCO3)n1CC,,inactive: 14.7%
CC(C)CNC(=S)Nc1ccc(S(N)(=O)=O)cc1,,inactive: 8.2%
Cc1ccccc1NC(=O)CC(C)S(=O)(=O)c1ccc2c(c1)NC(=O)CO2 (stereo not drawn),,inactive: 21.9%
COc1cccc(NC(=O)CN(C)C(=O)c2c(-c3c(F)cccc3Cl)noc2C)c1,"inconclusive [inhibitor, single point]",
CC(C)=CCOc1c2occc2cc2ccc(=O)oc12,"inconclusive [inhibitor, single point]",
COc1ccc(Cc2nnc(N/N=C/c3ccc(O)cc3O)[nH]c2=O)cc1OC,"inconclusive [inhibitor, single point]",
O=C(/C=C/c1ccc(OC(F)F)cc1)Nc1cccc(S(=O)(=O)NC2=NCCCCC2)c1,"inconclusive [inhibitor, partial curve]",
Cc1ccccc1-c1nnn(CC(=O)N(C)CC(=O)Nc2ccccc2C(F)(F)F)n1,"inconclusive [inhibitor, partial curve]",
O=c1cc(-c2cccc(F)c2)oc2ccccc12,"inconclusive [inhibitor, single point]",
CN=C1SC(CC(=O)Nc2ccccc2F)C(=O)N1/N=C/c1ccc(O)c(OC)c1 (stereo not drawn),"inconclusive [inhibitor, partial curve]",
O=C(NCC(c1ccco1)N1CCCC1)c1cc(S(=O)(=O)N2CCOCC2)ccc1Cl (stereo not drawn),,inactive: 6.63%
COc1cc(NC(=O)[C@@H](NC(=O)N2CCn3c2nc2ccccc23)C(C)C)cc(OC)c1,"inconclusive [inhibitor, single point]",
CCN(CC)C(=O)CSc1nc2ccccc2c(=O)n1CC1CCCCC1,"inconclusive [inhibitor, single point]",
